The whole screen tested about 45,000 compounds, of which about 65 (0.1%) were called active. Calls come from the whole dose curve; as a rule, active = well fitted activation curve with a large enough effect; inconclusive = small, poorly fitted or top-dose-only effect; inactive = no such curve, though single readings can be large or run the other way. Some of the results follow.
Molecular target: Galactocerebrosidase (Homo sapiens) (UniProt P54803)
Test: A Novel Cell-Based Assay to Identify Small Molecules for B -Galactocerebrosidase; note: 0% is about no effect; nearly all actives have a fitted effect of over 65% in size
Details: 145M-Twi-hGALC-G270D cells (Twitcher mouse brain line with human GALC G270D), HMU-beta-Gal fluorescence, 48 h; series mostly up to 57.5 µM; activation: at the top concentration
Procedure, shortened: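 Fluorescence readout: HMU-β-gal cleavage by mutant GALC (0.1 mM final, citrate/phosphate pH 5.2 with 1 mg/mL taurocholate), stopped with carbonate/bicarbonate plus Triton X-100. Cells: murine Twitcher 145M-Twi expressing human G270D GALC; qHTS for activators.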

UniProt P54803, sequence (P54803 whole entry, looked up): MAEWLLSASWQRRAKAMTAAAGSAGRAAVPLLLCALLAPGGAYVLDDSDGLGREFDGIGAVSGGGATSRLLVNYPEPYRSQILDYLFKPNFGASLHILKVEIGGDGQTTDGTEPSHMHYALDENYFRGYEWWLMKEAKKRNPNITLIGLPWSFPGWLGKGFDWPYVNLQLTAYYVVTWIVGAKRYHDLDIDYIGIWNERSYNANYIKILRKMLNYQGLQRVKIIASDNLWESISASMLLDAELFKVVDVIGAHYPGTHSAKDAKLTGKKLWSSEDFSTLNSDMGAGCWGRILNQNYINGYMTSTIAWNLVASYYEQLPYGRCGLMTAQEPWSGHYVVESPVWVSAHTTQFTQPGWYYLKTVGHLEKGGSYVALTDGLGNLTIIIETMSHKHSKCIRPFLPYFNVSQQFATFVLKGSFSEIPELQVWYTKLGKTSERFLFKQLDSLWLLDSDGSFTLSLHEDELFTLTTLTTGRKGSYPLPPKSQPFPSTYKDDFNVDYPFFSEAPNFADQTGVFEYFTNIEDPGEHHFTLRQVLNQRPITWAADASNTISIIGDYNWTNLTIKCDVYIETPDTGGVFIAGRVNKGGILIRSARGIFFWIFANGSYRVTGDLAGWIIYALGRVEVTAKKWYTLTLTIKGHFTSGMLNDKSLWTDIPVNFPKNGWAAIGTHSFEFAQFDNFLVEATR

activation, inactive:
Cc1cc(C)c(NC(=O)Cc2ccc(-n3c(C)nc4cccnc43)cc2)c(C)c1 11.1%
C=CC[N+]1([C@H]2C[C@H]3[C@@H]4CC[C@H]5C[C@H](OC(C)=O)[C@@H](N6CCCCC6)C[C@]5(C)[C@H]4CC[C@]3(C)[C@H]2OC(=O)CC)CCCCC1 -8.82%
COc1ccc(CNC(=O)CS(=O)(=O)c2cccc3nsnc23)cc1 12.8%
CCOc1cc(C2C(C(=O)OC)=C(C)NC3=C2C(=O)c2ccccc23)cc(Br)c1OCC (stereo unspecified) 10.6%
Cc1ccc(OC(=O)CSc2nnc(-c3cccs3)o2)c(C)c1 -16.8%
COc1ccc(Cl)cc1C(=O)NCc1nc(-c2cccc(C)c2)no1 -6.27%
O=C(c1ccc([N+](=O)[O-])cc1)N1c2ncnn2C2(CCCCC2)[C@@H]2CCCC[C@@H]21 -8.23%
CC1=C(C(=O)OC2CCCCCC2)C(c2ccc(Cl)cc2)CC(=O)N1 (stereo unspecified) -1.4%
Cc1ccc2nc(-c3ccco3)c(Nc3ccc4c(c3)OCCO4)n2c1 -12.2%
CC(=O)Nc1ccc(NC(=O)C2Cc3ccccc3N2C(=O)c2ccccc2)cc1 (stereo unspecified) -12.6%
COc1ccc(Cn2c(CCC(=O)Nc3ccccc3OC)nc3cccnc32)cc1 -19.8%
Cc1oc2ccc(O)c(CN3CCCC(C)C3)c2c1C(=O)Nc1ccccc1 (stereo unspecified) -15.5%
CC(C)OCCCn1c(=O)c2ccccc2n2c(-c3ccccc3F)nnc12 -13.9%
COc1ccc2c(c1)c(=O)c(C(=O)c1ccc(Cl)cc1)cn2CC(=O)Nc1ccc2c(c1)OCCO2 5.51%
O=C1CC2(CCCC2)CC(=O)N1CCCCN1CCN(c2ncccn2)CC1 -12.4%
CCc1c(C)nc2nc(-c3ccccc3)nn2c1NCc1ccc(C)cc1 -0.353%
COc1cccc2[nH]c(C(=O)NCc3ccc4c(c3)CCN4C(=O)c3ccc(F)cc3)cc12 -15%
COc1ccc(CNC(=O)c2ccc(-c3nc(CS(=O)c4ccc(C)cc4)c(C)o3)cc2)cc1 (stereo unspecified) -2.55%
O=C(CCS(=O)(=O)c1cccc2nonc12)Nc1ccc(F)cc1F -6.6%
Cc1ccc(-c2nnn3c2nc(NCc2ccc4c(c2)OCO4)c2ccccc23)cc1 -5.59%
COc1ccccc1N1CCN(C(=O)c2ccc3c(c2)CCN3S(=O)(=O)c2ccccc2)CC1 -11.8%
Cc1oc(-c2ccccc2Cl)nc1CSc1nncn2c1cc1occc12 -13.3%
COc1ccc(Br)cc1CNC(=O)Cn1ncn2nc(-c3cccs3)cc2c1=O -19.8%
Cc1ccc(CNC(=O)C(C)n2c(=O)cc(-c3ccccc3)c3c(C)nn(C)c32)cc1 (stereo unspecified) -9.85%
Cc1ccc2nc(-c3c[nH]c4ccccc34)c(Nc3ccc(F)cc3)n2c1 13%
O=C(NCCc1ccc(F)cc1)C(=O)NCC(c1cccs1)S(=O)(=O)c1ccccc1 (stereo unspecified) -25.8%
Cc1ccc(OCC(=O)Nc2nc(-c3ccc(Br)cc3)ns2)cc1 -11.9%
COc1ccccc1CNC(=O)c1ccc(CSc2nc3ccncc3n2Cc2cccc(F)c2)cc1 -16.2%
O=C(CC(c1cccs1)N1Cc2ccccc2C1=O)Nc1cccc(F)c1 (stereo unspecified) 7.34%
CCCn1ccc2c(OCC(=O)Nc3ccc(OC)c(OC)c3)cccc2c1=O -6.07%
COc1ccc2c(Sc3ccccc3)c(C(=O)NCc3cc(Br)ccc3OC)[nH]c2c1 -17.9%
Cc1cccc(-c2nc(C)c(CCNC(=O)C(=O)Nc3ccc(C)c(C)c3)s2)c1 -18.6%
CCOc1ccccc1CNc1nc2nc(C)c(CC(=O)OC)c(=O)n2[nH]1 -14.6%
Cc1cccc(C(=O)Nc2ccc(S(=O)(=O)N3CCCCC3c3cccnc3)cc2)c1 (stereo unspecified) 3.79%
COc1ccc(Cl)cc1S(=O)(=O)N1CCN(C(=O)c2cc(-c3ccc(Br)cc3)n[nH]2)CC1 -5.37%
Cc1ccc(-n2ncc3c(N4CCN(Cc5ccccc5)CC4)ncnc32)cc1 -16.8%
Cc1cc(C)c(/C=C2\C(=O)Nc3ccccc32)[nH]1 -6.81%
O=C(CSc1nc(=O)[nH]c2c1CCC2)NCc1ccc(F)cc1 -9.02%
CN/C(=C\[N+](=O)[O-])NCCSCc1csc(CN(C)C)n1 -14.3%
O=C(CCc1ccccc1)N1CCc2c([nH]c3ccccc23)C1c1ccc(F)cc1 (stereo unspecified) 5.32%
CCCCNC(=O)c1sc2ncccc2c1-n1cccc1 -17%
O=C(CCCn1c(=O)c2ccccc2n(Cc2cccc(F)c2)c1=O)NCc1ccccc1Cl -6.71%
O=C(Nc1ccc(S(=O)(=O)N(Cc2ccccc2)c2ccccc2)cc1)c1ccc(F)cc1 -23.4%
COc1cc(CNc2ccc3[nH]c(=O)[nH]c3c2)cc(Cl)c1OCc1ccc(F)cc1 -16.5%
COc1ccc(NC(=O)CN(c2ccc(C)cc2)S(=O)(=O)c2cccs2)cc1 -13.2%
Cc1nn(C(C)(C)C)c(OC(=O)c2c(F)cccc2F)c1Sc1ccccc1 -9.08%
Cc1cccc(NS(=O)(=O)c2ccc3c(c2)CCCN3C(=O)C2CCC2)c1C -0.995%
CN1C(=O)c2ccccc2Sc2ccc(NC(=O)c3ccc(C#N)cc3)cc21 -13.3%
COC(=O)C(CCSC)NC(=O)c1cc2c(n(-c3ccccc3)c1=O)CC(C)(C)CC2=O (stereo unspecified) -14.8%
Cc1cc2oc(C(=O)Nc3c(C)n(C)n(-c4ccccc4)c3=O)cc(=O)c2cc1C -4.97%
CCOC(=O)Cn1c(=O)n(-c2ccc(Cl)cc2)c2nc(-c3ccc(Cl)cc3)nc(C(N)=O)c21 -12%
COc1ccc(CCNc2nc3c(c(=O)n(C)c(=O)n3C)n2Cc2ccccc2Cl)cc1OC -19.9%
Cc1csc2nc(-c3cccc(NC(=O)c4c(F)cccc4F)c3)cn12 -18.8%
O=C(Cn1cc(S(=O)(=O)Cc2ccccc2F)c2ccccc21)NCc1ccccc1 5.51%
O=C(Nc1ccc(C(=O)OCc2cc(=O)n3c4c(sc3n2)CCCC4)cc1)c1cccc(F)c1 -7.99%
Cc1cccc(C(=O)Nc2ccccc2OCc2cc(=O)n3c(C)csc3n2)c1 -7.02%
Cc1ccc2c(=O)cc(C(=O)Nc3nc4ccc(Cl)cc4s3)oc2c1 -13.9%
COc1cc(OC)cc(N2C(=O)CSC23C(=O)Nc2ccccc23)c1 (stereo unspecified) -18.5%
COc1ccc(C(=O)OCc2cc(=O)n3nc(C4CC4)sc3n2)cc1OC 1.66%
CCOc1ccc(Nc2c3c(nc4nncn24)CCC3)cc1 -11%
CC(C)Oc1ccc(CNS(=O)(=O)c2ccc(-c3cc(C(F)(F)F)on3)s2)cc1 -11.8%
Cc1ccc(NC(=O)CCn2cnc3onc(-c4ccc(F)cc4)c3c2=O)c(Br)c1 -12.7%
Cc1ccc2nc(CN3CCN(S(=O)(=O)c4ccc(F)cc4)CC3)oc2c1 -16.4%
Cc1ccc2oc(C(=O)Nc3ccc(S(=O)(=O)Nc4nc(C)cc(C)n4)cc3)cc(=O)c2c1 -9.2%
CCCNC(=O)CSc1cn(CC(=O)N2CCCCCC2)c2ccccc12 -14.6%
CCOc1ccc(-c2nnc(SCC(=O)Nc3cccc(Cl)c3C)o2)cc1 -13.2%
O=C(CSc1nc2sc3c(c2c(=O)[nH]1)CCCC3)Nc1ccccc1F -6.18%
COc1ccc(CCNC(=O)CCn2c(=O)c3ccccc3n(Cc3ccccc3C)c2=O)cc1OC -6.93%
c1ccc(OCc2ccc(CCCN3CCOCC3)cc2)cc1 -6.7%
Cc1ccc(CNC(=O)C2CCCN(Cc3nc(-c4cccc(C)c4)oc3C)C2)cc1 (stereo unspecified) -10.8%
COc1cccc(NC(=O)C2CCN(c3nnc(-n4c(C)ccc4C)s3)CC2)c1 -0.2%
Cc1ccc2ccc(Cl)cc2n1 -9.7%
O=c1cc(O)c(Cl)c[nH]1 -13%
COc1ccc(-c2nc3ccccc3o2)cc1NC(=O)c1ccc(-c2cccc(Cl)c2C)o1 -6.93%
Cc1cc2c(cc1S(=O)(=O)Nc1cccc(Cl)c1C)OCCN2C -6.69%
Cc1c(-c2nc(-c3ccc4c(c3)OCO4)no2)nnn1-c1cccc(C(F)(F)F)c1 -27.7%
Cc1ccc(Cl)cc1N1CCN(C(=O)COCc2cc(-c3ccc4c(c3)OCO4)on2)CC1 -20.8%
CCN(CC)CCNC(=O)c1ccc2c(=O)n3nc(Nc4ccccc4)sc3nc2c1 -7.85%
CC1=C(C(=O)Nc2cccc(C(F)(F)F)c2)C2(CCN(C(C)C)CC2)OC1=O 16%
c1ccc(CCNc2nc(-c3ccccc3)cs2)cc1 3.88%
CCOC(=O)c1ccc(CN(Cc2ccc(C)cc2)S(=O)(=O)c2ccc(NC(C)=O)cc2)cc1 -2.67%
Cc1ccc(NC(=O)C2CCCN(S(=O)(=O)c3c(C)n[nH]c3C)C2)cc1C (stereo unspecified) -8.46%
CSc1cccc(NC(=O)C2CCN(S(=O)(=O)c3ccc4[nH]c5c(c4c3)CCCCC5)CC2)c1 2.16%
CC(C)CCNC(=O)Nc1cc(C(=O)NCc2cccc(F)c2)ccc1N1CCCC1 -28.1%
COc1ccc2c(c1)c1c(c(=O)n(Cc3ccccc3)c(=O)n1CC(=O)Nc1ccc(C)cc1C)n2C -8.93%
COc1ccc2c(c1)CC(C(=O)NCCN1CCN(c3cccc(C)c3C)CC1)CO2 (stereo unspecified) -9.79%
COc1ccc(C)cc1NC(=O)Cn1c(=O)oc2cc(S(=O)(=O)NCc3ccccc3)ccc21 9.4%
O=C(Nc1nnc(S(=O)(=O)N2CCCCCC2)s1)c1ccccc1Br -4.02%
CC(=O)Nc1ccc(Nc2nnc(-c3ccc(C)c(S(N)(=O)=O)c3)c3ccccc23)cc1 0.757%
COCCCNC(=O)CN1C(=O)CSc2ccc(S(=O)(=O)N3CCOCC3)cc21 4.87%
CCn1cc2nc(SCc3ccc(F)cc3)n(Cc3ccc(Cl)cc3)c(=O)c2n1 -13.1%
CCCS(=O)(=O)N1CC(=O)N(c2ccc(Cl)cc2)C(C)(C(=O)NC2CCCC2)C1 (stereo unspecified) -13%
O=C(NCc1ccccc1Cl)c1ccc(NC(=O)N2CCSc3ncccc32)cc1 1.51%
COCCn1c(SCC(=O)Nc2ccc(C(F)(F)F)cc2)nc2c([nH]c3ccccc32)c1=O 0.161%
Cc1ccc(NC(=O)c2oc3ccc(S(=O)(=O)N4CCC5(CC4)OCCO5)cc3c2C)c(C)c1 -8.82%
Cc1ccc(NC(=O)C(=O)NCCc2csc3nc(-c4ccccc4C)nn23)cc1Cl 2.01%

From PubChem BioAssay AID1159614 (National Center for Advancing Translational Sciences (NCATS), 2016)
